Measurements as given in PubChem BioAssay AID686979 (National Center for Advancing Translational Sciences (NCATS), 2013).
Among all 420,000 compounds or so, about 50,000 (12%) were called active. This list was built around the results that the source calls inconclusive (neither active nor inactive); the mix of calls is not that of the screen. The call rests on the fitted dose curve; in most records, active means well fitted inhibition curve with a large enough effect; inconclusive means small, poorly fitted or top-dose-only effect; inactive means flat fitted curve, though single readings scatter. Potencies of inconclusive entries are left out as doubtful fits.
On the % scale 0 is the no-effect control and ±100 the full control effect; potency means the concentration at half of the fitted maximal effect; tags describe the fitted curve by direction and shape.

Assay: qHTS for Inhibitors of human tyrosyl-DNA phosphodiesterase 1 (TDP1): qHTS in cells in presence of CPT; further: nearly all actives have a fitted effect of over 55% in size
Settings: chicken DT40 Tdp1-/-;hTDP1 cells + 20 nM CPT, ATP luminescence, 48 h; activity change, negative = growth inhibition: at 46.2 µM (top of the series) unless noted
In short: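 Cell growth measured by CellTiter-Glo luminescence after a minimum 48 h, 37 C compound exposure with 20 nM CPT in Tdp1-knockout DT40 cells stably expressing hTDP1, seeded 400/well; qHTS titration format.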
With `CCOc1cc(N2CCOCC2)c(OCC)cc1NC(=O)CN1C(=O)NC(Cc2ccccc2)C1=O` (stereo unspecified) the “activity change, negative = growth inhibition” value was inactive: 2.94%.
In the case of `CC(=O)c1cc2c(cc1NS(=O)(=O)c1ccccc1)OCO2`, the “activity change, negative = growth inhibition” value was inactive: -14%.
For `Cc1ccccc1C1CC(=O)c2ccccc2C1C` (stereo unspecified), the Potency was inconclusive [inhibitor, single point].
With `O=C(O)CCC(=O)Nc1ccc(C(=O)OCC(=O)c2ccc(Cl)cc2Cl)cc1` the “activity change, negative = growth inhibition” value was inactive: -0.912%.
In the case of `Cc1ccc(CSc2nc3ccncc3[nH]2)cc1`, the Potency was inconclusive [inhibitor, partial curve, poor fit].
In the case of `Cc1cc(C)c2c(=O)n(CC(=O)Nc3ccc(Br)c(C)c3)sc2n1`, the Potency was active: 8.2 µM.
With `Cc1ccc(-n2c(C)cc(C(=O)COc3cccnc3[N+](=O)[O-])c2C)cc1` the Potency was active: 18.4 µM.
For `COc1ccccc1C(=O)NCCC(=O)N1CC=C(c2ccccc2)CC1`, the Potency was inconclusive [inhibitor, single point].
With `COc1ccc(NC(=O)c2cc(-c3cccnc3)nc3c(C)c(C)ccc23)c(OC)c1` the Potency was inconclusive [inhibitor, partial curve, poor fit].
For `Cc1ccc(C)c(N2CCN(C(=O)c3cc(S(=O)(=O)N4CCCCC4)cn3C)CC2)c1`, the Potency was active: 20.6 µM.
For `CCNC(=O)CC1C(=O)N(c2ccccc2)C(=O)N1CCc1ccc(OC)cc1` (stereo unspecified), the activity change, negative = growth inhibition was inconclusive: -30.5% [inhibitor].
In the case of `CCc1cccc2c(C(=O)COC(=O)c3ccc(O)cc3)c[nH]c12`, the Potency was inconclusive [inhibitor, partial curve].
For `Cc1csc(N(C)C(=O)CSc2nnc(COc3cccc4ccccc34)o2)n1`, the Potency was active: 5.8 µM.
In the case of `Cc1ccc(-c2onc(C)c2C)cc1S(=O)(=O)N1CC(C)Oc2ccccc21` (stereo unspecified), the Potency was inconclusive [inhibitor, single point].
With `Cc1ccc(N2CCN(C(=O)C(=O)c3ccc4c(c3)OCO4)CC2)cc1` the “activity change, negative = growth inhibition” value was inactive: -8.46%.
In the case of `O=C(CSc1nc2scc(-c3ccccc3)c2c(=O)[nH]1)Nc1ccccc1`, the Potency was inconclusive [inhibitor, partial curve].
In the case of `Cc1ccc(-n2c(N)c(Br)c(=O)[nH]c2=O)cc1C`, the Potency was inconclusive [inhibitor, single point].
In the case of `CC(C)c1ccc(Nc2cc(C(=O)NCCc3ccccc3)c3ccccc3n2)cc1`, the Potency was inconclusive [inhibitor, single point].
With `O=C(Nc1ccc(N2CCCCCC2)cc1)c1ccccc1Cl` the Potency was active: 13 µM.
For `Cc1cc(=O)c2ccccc2n1CC(=O)NCc1ccccc1`, the Potency was active: 18.4 µM.
With `COCCn1c(=NC(=O)c2cc3ccccc3oc2=O)sc2cc(S(N)(=O)=O)ccc21` the “activity change, negative = growth inhibition” value was inactive: 0.419%.
For `CCOC(=O)C1(Cc2cccc(OC)c2)CCN(Cc2ccon2)CC1`, the Potency was inconclusive [inhibitor, single point].
With `COCCNc1nc(Oc2cccc3ccccc23)c2sccc2n1` the Potency was active: 11.6 µM.
With `CCOC(=O)Nc1ccc2c(CNC(C)c3ccccc3OC)cc(=O)oc2c1` (stereo unspecified) the Potency was inconclusive [inhibitor, single point].
For `CCCCN(CC)c1ncnc2c1sc1nc(N3CCOCC3)c3c(c12)CCCC3`, the “activity change, negative = growth inhibition” value was inactive: 2.07%.
In the case of `O=C(NC1CCCC1)C(c1ccc(F)cc1)N(Cc1ccc(Cl)cc1)C(=O)CCl` (stereo unspecified), the Potency was active: 3.26 µM.
With `NC(=S)N=Nc1c(O)cc(O)c2[nH]c(=O)ccc12` the “activity change, negative = growth inhibition” value was inactive: -0.658%.
In the case of `Cc1cc2oc(C(=O)N(Cc3ccccc3)C3CCS(=O)(=O)C3)c(C)c2cc1C` (stereo unspecified), the Potency was active: 25.9 µM.
For `COc1cccc(CC2(CO)CCCN(CC3=Cc4cc(OC)ccc4OC3)C2)c1` (stereo unspecified), the Potency was inconclusive [inhibitor, single point].
With `Cc1cccc(N2C(S)=C(C#N)C(=O)NC2c2ccco2)c1` (stereo unspecified) the Potency was inconclusive [inhibitor, single point].
With `Cc1ccc(-c2csc(C(O)(c3ccccc3)C(F)(F)F)n2)cc1C` (stereo unspecified) the Potency was inconclusive [inhibitor, single point].
In the case of `CCc1ccccc1N1CC(c2nc3ccccc3n2CC(C)C)CC1=O` (stereo unspecified), the Potency was active: 14.6 µM.
In the case of `CCC(C)NC(=O)C1CCN(C(=O)c2cc3sccc3n2Cc2ccc(Cl)cc2)CC1` (stereo unspecified), the Potency was active: 3.66 µM.
For `Cc1ccc(/C(N)=N/OC(=O)c2ccco2)cc1`, the activity change, negative = growth inhibition was inconclusive: -32.4% [inhibitor].
In the case of `O=c1nc(-c2ccccc2)c2cc(Cl)ccc2[nH]1`, the Potency was inconclusive [inhibitor, full curve].
In the case of `CC(C)(C)C1CCc2nc(NC(=O)COc3ccc(F)cc3)sc2C1` (stereo unspecified), the Potency was inconclusive [inhibitor, partial curve].
